Reference: article PMC12752501
Results are given in words; binding and its absence hold for the method and conditions named. In cells and extracts the contact can be indirect. Some entries that bind do so weakly or less than the wild type. Where a sequence is shown, tags or fusion partners need not be part of it.

Protein sequences, listed by entry. Tags and fused reporters are not part of them. Residues count along the entry.
UniProt Q7Z7M0, residues 28-2845: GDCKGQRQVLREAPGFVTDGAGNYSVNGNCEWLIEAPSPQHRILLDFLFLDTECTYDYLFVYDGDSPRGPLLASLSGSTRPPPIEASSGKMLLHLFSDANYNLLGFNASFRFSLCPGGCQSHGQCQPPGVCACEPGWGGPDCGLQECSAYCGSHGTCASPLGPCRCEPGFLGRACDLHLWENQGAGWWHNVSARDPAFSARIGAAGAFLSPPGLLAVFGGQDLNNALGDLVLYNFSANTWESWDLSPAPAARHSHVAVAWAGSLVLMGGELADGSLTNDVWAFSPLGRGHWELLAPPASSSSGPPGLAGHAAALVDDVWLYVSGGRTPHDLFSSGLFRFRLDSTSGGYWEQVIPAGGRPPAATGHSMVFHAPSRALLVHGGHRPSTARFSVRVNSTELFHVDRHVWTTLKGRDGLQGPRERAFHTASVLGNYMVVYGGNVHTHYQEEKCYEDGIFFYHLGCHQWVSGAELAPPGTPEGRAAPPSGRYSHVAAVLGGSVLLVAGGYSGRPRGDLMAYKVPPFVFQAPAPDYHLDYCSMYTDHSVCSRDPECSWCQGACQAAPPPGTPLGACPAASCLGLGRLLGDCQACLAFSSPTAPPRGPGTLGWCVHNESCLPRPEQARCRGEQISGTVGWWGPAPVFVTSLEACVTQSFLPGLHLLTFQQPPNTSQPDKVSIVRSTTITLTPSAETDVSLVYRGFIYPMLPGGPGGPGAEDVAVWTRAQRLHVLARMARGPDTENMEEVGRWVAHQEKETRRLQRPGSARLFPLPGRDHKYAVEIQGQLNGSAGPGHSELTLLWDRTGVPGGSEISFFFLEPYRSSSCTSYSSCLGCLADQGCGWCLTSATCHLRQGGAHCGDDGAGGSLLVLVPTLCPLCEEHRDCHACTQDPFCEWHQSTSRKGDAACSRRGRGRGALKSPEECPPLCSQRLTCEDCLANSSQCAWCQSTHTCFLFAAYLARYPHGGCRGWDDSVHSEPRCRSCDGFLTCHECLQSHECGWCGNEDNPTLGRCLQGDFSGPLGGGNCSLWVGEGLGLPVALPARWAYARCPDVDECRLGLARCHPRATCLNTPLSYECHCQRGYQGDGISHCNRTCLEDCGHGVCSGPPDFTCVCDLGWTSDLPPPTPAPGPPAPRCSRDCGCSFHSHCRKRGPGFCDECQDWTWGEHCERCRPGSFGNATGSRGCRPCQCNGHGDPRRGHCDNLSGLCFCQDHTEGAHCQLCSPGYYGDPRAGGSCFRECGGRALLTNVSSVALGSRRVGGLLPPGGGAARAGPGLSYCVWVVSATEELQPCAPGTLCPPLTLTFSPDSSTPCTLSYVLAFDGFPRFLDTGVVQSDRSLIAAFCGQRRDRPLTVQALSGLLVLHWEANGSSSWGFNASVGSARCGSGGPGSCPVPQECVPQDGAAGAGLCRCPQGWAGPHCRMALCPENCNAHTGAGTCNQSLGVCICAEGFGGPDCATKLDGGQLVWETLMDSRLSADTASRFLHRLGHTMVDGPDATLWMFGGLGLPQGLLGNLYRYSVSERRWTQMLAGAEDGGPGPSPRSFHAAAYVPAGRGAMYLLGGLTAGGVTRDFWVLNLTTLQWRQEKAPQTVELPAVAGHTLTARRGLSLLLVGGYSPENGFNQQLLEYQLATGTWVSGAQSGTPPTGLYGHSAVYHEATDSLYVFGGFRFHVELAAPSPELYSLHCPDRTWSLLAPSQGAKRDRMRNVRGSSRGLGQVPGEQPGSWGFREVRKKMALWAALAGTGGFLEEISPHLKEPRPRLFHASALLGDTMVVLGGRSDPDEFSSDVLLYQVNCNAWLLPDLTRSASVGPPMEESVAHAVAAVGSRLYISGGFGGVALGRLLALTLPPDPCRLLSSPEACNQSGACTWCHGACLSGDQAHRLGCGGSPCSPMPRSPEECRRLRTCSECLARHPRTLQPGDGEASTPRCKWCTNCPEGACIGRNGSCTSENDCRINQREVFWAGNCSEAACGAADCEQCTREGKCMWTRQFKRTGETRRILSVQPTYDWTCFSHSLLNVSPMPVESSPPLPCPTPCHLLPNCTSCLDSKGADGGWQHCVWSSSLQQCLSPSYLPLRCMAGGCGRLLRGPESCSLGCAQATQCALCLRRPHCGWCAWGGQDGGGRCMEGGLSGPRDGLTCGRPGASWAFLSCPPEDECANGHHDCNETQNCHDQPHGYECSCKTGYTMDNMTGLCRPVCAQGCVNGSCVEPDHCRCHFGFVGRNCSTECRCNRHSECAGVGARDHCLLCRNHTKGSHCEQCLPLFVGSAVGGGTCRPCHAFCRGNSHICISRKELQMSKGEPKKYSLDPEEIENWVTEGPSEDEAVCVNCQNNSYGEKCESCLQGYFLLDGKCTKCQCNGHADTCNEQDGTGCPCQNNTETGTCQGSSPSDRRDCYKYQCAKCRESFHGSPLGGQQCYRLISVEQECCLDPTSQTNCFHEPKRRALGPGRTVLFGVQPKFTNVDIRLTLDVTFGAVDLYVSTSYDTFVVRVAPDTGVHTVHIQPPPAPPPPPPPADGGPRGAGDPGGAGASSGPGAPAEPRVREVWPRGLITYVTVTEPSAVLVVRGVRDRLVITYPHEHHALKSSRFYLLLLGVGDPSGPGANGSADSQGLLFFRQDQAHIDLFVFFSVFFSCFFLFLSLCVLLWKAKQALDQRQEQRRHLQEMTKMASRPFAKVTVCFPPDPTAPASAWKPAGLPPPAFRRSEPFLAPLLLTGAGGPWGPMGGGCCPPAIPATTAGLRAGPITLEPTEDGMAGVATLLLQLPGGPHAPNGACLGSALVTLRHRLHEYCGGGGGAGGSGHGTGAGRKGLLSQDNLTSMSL
UniProt Q9WU60, residues 83-1428: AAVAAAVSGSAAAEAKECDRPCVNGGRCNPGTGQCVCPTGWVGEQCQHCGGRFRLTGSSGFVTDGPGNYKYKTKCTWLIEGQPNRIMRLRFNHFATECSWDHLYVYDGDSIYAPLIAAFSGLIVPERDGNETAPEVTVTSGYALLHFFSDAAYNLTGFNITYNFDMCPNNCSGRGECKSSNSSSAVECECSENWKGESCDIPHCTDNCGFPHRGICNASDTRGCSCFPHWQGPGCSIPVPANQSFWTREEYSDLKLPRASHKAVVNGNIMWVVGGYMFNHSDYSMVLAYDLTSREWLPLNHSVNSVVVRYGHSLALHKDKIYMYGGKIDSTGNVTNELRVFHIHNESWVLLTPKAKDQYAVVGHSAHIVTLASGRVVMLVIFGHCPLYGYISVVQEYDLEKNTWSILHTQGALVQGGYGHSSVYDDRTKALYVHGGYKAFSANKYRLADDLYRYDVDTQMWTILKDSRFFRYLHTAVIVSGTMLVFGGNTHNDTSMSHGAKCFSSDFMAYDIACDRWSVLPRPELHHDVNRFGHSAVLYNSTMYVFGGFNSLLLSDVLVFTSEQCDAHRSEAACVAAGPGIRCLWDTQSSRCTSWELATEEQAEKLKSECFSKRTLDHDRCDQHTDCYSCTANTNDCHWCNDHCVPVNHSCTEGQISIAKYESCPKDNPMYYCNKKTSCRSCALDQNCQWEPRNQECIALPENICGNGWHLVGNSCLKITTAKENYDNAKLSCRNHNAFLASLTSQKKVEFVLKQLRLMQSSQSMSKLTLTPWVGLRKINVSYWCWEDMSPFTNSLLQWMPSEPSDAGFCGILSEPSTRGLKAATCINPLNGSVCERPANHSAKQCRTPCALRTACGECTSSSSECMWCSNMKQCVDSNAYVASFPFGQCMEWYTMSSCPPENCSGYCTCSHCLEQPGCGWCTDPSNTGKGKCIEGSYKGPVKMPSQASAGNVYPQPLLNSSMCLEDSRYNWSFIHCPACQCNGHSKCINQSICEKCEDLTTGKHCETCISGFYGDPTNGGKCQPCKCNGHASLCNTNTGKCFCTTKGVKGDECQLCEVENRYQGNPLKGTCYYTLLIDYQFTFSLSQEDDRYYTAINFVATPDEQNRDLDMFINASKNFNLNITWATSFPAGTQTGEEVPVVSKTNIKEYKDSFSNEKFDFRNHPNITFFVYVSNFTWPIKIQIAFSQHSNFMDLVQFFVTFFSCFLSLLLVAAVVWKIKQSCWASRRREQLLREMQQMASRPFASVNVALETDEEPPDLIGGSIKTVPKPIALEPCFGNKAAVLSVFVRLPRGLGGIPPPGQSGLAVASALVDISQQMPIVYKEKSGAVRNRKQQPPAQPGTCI
UniProt Q5VV63, residues 53-1379: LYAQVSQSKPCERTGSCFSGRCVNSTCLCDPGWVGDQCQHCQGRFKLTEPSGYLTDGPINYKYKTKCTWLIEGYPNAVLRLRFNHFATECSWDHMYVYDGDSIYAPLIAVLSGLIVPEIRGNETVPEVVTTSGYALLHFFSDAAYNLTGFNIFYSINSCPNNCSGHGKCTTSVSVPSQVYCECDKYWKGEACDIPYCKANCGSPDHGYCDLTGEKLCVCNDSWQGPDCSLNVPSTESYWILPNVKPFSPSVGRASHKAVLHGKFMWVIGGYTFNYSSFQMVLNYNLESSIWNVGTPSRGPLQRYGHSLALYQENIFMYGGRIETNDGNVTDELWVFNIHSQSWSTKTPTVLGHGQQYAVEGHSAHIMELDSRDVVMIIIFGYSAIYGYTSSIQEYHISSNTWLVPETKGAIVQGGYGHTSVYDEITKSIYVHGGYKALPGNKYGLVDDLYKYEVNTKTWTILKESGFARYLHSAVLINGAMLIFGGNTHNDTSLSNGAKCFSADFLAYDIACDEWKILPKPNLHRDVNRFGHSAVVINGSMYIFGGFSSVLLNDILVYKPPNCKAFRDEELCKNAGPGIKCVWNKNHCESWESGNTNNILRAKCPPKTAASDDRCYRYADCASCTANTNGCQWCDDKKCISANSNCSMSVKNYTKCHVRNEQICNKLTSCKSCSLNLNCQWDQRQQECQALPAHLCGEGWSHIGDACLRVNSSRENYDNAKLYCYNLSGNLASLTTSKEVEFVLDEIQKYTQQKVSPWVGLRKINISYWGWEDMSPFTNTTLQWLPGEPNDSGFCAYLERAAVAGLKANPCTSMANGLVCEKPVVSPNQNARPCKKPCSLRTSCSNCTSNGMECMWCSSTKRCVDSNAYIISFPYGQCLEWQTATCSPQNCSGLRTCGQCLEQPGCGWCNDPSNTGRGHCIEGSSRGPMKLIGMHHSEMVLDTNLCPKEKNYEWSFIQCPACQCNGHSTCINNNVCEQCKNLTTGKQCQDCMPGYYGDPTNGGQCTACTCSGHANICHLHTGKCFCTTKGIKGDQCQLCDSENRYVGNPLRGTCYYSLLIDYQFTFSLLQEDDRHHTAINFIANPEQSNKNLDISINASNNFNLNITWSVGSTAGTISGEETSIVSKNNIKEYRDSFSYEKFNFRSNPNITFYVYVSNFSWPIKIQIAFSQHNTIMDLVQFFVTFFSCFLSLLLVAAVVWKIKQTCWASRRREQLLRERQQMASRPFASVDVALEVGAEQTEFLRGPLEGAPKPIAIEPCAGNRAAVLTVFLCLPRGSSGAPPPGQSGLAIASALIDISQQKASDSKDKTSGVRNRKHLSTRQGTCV
UniProt P32245, residues 2-332: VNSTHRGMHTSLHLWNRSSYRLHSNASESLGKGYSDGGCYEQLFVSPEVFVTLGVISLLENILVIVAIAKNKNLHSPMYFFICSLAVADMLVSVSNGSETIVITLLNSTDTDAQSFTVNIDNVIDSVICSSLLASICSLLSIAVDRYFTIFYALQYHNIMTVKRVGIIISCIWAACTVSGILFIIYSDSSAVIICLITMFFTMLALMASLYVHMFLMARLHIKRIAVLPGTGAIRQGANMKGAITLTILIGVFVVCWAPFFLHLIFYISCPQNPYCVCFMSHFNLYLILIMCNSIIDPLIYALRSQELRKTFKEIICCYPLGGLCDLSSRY

T1: Mgrn1-Flag (wild-type), stable addback in NIH/3T3 (mouse) (UniProt Q9D074)
T1 sequence: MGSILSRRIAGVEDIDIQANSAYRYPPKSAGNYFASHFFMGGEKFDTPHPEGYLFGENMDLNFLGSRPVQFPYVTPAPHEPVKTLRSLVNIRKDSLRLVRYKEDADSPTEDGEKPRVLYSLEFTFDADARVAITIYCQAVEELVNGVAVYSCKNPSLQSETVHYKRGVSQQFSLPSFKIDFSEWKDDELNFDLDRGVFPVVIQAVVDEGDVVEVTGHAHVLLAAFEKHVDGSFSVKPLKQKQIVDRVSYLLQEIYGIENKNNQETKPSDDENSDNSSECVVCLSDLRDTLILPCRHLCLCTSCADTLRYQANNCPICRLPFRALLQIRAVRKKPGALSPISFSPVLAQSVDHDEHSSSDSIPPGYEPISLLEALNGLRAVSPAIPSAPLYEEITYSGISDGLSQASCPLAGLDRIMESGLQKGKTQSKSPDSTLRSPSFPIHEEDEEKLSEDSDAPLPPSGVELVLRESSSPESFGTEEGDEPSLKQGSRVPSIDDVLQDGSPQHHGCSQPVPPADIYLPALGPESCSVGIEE

T2: Mgrn1^R318E-Flag, in HEK293T (mouse) (UniProt Q9D074)
T2 sequence: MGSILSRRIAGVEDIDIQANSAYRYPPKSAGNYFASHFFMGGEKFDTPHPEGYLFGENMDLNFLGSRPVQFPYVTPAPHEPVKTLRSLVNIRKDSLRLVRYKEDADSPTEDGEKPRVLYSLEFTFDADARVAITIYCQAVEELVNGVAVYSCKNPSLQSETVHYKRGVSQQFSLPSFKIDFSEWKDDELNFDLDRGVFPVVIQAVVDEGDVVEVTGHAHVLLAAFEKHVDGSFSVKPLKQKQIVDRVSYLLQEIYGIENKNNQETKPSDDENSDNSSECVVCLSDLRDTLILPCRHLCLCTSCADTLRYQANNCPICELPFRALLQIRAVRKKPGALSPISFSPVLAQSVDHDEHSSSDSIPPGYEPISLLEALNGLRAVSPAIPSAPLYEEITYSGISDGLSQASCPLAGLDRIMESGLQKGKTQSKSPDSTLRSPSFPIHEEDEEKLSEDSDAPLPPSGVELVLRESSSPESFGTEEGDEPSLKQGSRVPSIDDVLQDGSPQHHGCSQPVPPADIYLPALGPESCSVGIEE

T3: Mgrn1-Flag (wild-type), in HEK293T (mouse) (UniProt Q9D074)
T3 sequence: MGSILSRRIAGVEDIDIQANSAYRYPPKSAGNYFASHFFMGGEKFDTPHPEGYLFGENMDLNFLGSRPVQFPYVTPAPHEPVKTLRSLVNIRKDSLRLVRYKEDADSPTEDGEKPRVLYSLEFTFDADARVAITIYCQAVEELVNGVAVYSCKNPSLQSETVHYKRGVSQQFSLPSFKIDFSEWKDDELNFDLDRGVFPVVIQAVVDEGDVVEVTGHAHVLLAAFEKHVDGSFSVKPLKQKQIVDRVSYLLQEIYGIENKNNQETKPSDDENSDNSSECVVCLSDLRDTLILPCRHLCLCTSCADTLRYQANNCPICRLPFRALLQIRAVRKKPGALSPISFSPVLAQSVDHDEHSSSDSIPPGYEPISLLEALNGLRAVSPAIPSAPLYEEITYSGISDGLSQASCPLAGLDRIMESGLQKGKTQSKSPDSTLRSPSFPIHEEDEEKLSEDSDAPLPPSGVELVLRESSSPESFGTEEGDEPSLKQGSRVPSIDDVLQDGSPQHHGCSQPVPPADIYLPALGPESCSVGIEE


What was measured:
[1] = target: T1, Mgrn1-Flag (wild-type), stable addback in NIH/3T3 (mouse); experiment: co-IP; Mgrn1−/−; Rnf157−/− NIH/3T3 cells stably expressing FLAG-tagged wild-type or truncated Mgrn1; immunoprecipitated with anti-FLAG M2 magnetic beads, blot for endogenous ATRN; ATRN signal normalised to FLAG-MGRN1
[2] = target: T2, Mgrn1^R318E-Flag, in HEK293T (mouse); experiment: co-IP; HEK293T transfected with MC1R-Venus or MC4R-Venus and Mgrn1-Flag (wild-type or R318E); anti-FLAG beads pull down MGRN1, blot with anti-GFP antibody
[3] = target: T3, Mgrn1-Flag (wild-type), in HEK293T (mouse); experiment: as above
MEGF8-1D4 = MEGF8-1D4 (UniProt Q7Z7M0); experiment: co-IP; HEK293T transiently transfected with 1D4-tagged MEGF8, Atrn or ATRNL1, FLAG-tagged Mgrn1 (wild-type or R318E) and HA-tagged Mosmo; immunoprecipitated with anti-1D4 beads, western blotting; washes up to 500 mM NaCl
Atrn-1D4 (mouse) = Atrn-1D4 (mouse) (UniProt Q9WU60); experiment: as above
ATRNL1-1D4 (human) = ATRNL1-1D4 (human) (UniProt Q5VV63); experiment: as above

binding [2]	binding [3]	binding (Atrn-1D4 (mouse))	binding (ATRNL1-1D4 (human))	Molecule	other results
				endogenous ATRN (attractin) (from UniProt Q9WU60 83-1428)	binding [1]: binds
binds	binds			MC4R-mVenus (from UniProt P32245 2-332) (receptor)	
binds	binds			MC1R-mVenus (receptor, UniProt Q01726 2-317) AVQGSQRRLLGSLNSTPTAIPQLGLAANQTGARCLEVSISDGLFLSLGLVSLVENALVVATIAKNRNLHSPMYCFICCLALSDLLVSGSNVLETAVILLLEAGALVARAAVLQQLDNVIDVITCSSMLSSLCFLGAIAVDRYISIFYALRYHSIVTLPRARRAVAAIWVASVVFSTLFIAYYDHVAVLLCLVVFFLAMLVLMAVLYVHMLARACQHAQGIARLHKRQRPVHQGFGLKGAVTLTILLGIFFLCWGPFFLHLTLIVLCPEHPTCGCIFKNFNLFLALIICNAIIDPLIYAFHSQELRRTLKEVLTCSW	
		binds	binds	Mgrn1-Flag (wild-type), in HEK293T (enzyme, UniProt Q9D074-2 1-533) MGSILSRRIAGVEDIDIQANSAYRYPPKSAGNYFASHFFMGGEKFDTPHPEGYLFGENMDLNFLGSRPVQFPYVTPAPHEPVKTLRSLVNIRKDSLRLVRYKEDADSPTEDGEKPRVLYSLEFTFDADARVAITIYCQAVEELVNGVAVYSCKNPSLQSETVHYKRGVSQQFSLPSFKIDFSEWKDDELNFDLDRGVFPVVIQAVVDEGDVVEVTGHAHVLLAAFEKHVDGSFSVKPLKQKQIVDRVSYLLQEIYGIENKNNQETKPSDDENSDNSSECVVCLSDLRDTLILPCRHLCLCTSCADTLRYQANNCPICRLPFRALLQIRAVRKKPGALSPISFSPVLAQSVDHDEHSSSDSIPPGYEPISLLEALNGLRAVSPAIPSAPLYEEITYSGISDGLSQASCPLAGLDRIMESGLQKGKTQSKSPDSTLRSPSFPIHEEDEEKLSEDSDAPLPPSGVELVLRESSSPESFGTEEGDEPSLKQGSRVPSIDDVLQDGSPQHHGCSQPVPPADIYLPALGPESCSVGIEE	binding (MEGF8-1D4): binds
		no binding	no binding	Mosmo-HA (protein, UniProt Q8C784 1-167) MDKLTIISGCLFLAADIFAIASIANPDWINTGESAGALTVGLVRQCQTIHGRDRTCIPPRLPPEWVTTLFFIIMGIISLTVTCGLLVASHWRREATKYARWIAFTGMILFCMAALIFPIGFYINEVGGQPYKLPNNTVVGSSYVLFVLSIFFTIVGLLFAGKVCLPG	
